# In PubChem BioAssay (NCATS):
# The inconclusive results got no clear call from the source; some entries with a clear call stand among them for comparison. For part of these data: Where the call is inconclusive, the potency comes from a doubtful curve fit. More than one record can exist for a structure, and the calls need not agree. Calls of active or inactive are those of the source. The call rests on the fitted dose curve; in most records, active means well fitted curve in the direction sought with a large enough effect; inconclusive means small, poorly fitted or top-dose-only effect, or another doubt; inactive means no such curve, though single readings can be large; an effect the other way counts as inactive or inconclusive.
# Key:
# [1] = Viability qHTS for spleen associated tyrosine kinase inhibitor (SYKi) naive MV4-11 cells (AID 1963823); details: MV4-11 AML viability, CellTiter-Glo luminescence, 72 h; further: nearly all actives have a fitted effect of over 40% in size
# In short: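 Read-out: CellTiter-Glo luminescence. Exposure: 72 hr, 37 C, 5% CO2, 95% humidity. Cells: MV4-11 without SYK inhibitor history, 500/well, qHTS format.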
# [2] = Viability qHTS for spleen associated tyrosine kinase inhibitor (SYKi) drug resistant MV4-11 cells (AID 1963824); further: nearly all actives have a fitted effect of over 35% in size
# In short: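 SYK-inhibitor-resistant MV4-11 AML cells were seeded at 500 per well onto compound and cultured 72 hours (37 °C, 5% CO2). CellTiter-Glo was then added, and after 10 min at room temperature, luminescence gave viability.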
# [3] = Quantitative highthroughput screen to assess conditional lethalithy of NOMO1 cells grown in RPMI1640 with untreated serum (RPMI+s) (AID 1963876); details: NOMO1 AML cells in RPMI+serum, CellTiter-Glo viability, 48 h; viability: at 45.8 µM (top of the series); further: nearly all actives have a fitted effect of over 35% in size
# In short: (§1)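 Each medium arm—HPLM with 10% dialyzed FBS, or RPMI1640 with 5 mM glucose and 10% untreated or dialyzed FBS—was screened against an 11-point, 3-fold compound titration for 48 h at 37 °C, with CellTiter-Glo luminescence as endpoint.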
# [4] = Quantitative highthroughput screen to assess conditional lethalithy of NOMO1 cells grown in RPMI1640 with dialyzed fetal bovine serum (RPMI+ds) (AID 1963877); further: nearly all actives have a fitted effect of over 30% in size
# In short: as §1
# [5] = Quantitative highthroughput screen to assess conditional lethalithy of NOMO1 cells grown in Human Plasma-Like Medium with dialyzed fetal bovine serum (HPLM+ds) (AID 1963878); details: NOMO1 AML cells in HPLM+ds, CellTiter-Glo viability, 48 h; viability: at 45.8 µM (top of the series); further: nearly all actives have a fitted effect of over 35% in size
# In short: as §1
# [6] = Quantitative highthroughput screen to assess conditional lethalithy of P12 Ichikawa cells grown in Human Plasma-Like Medium with dialyzed fetal bovine serum (HPLM+ds) (AID 1963879); details: Potency: viability; further: nearly all actives have a fitted effect of over 35% in size
# In short: as §1
# [7] = Quantitative highthroughput screen to assess conditional lethalithy of P12 Ichikawa cells grown in RPMI1640 with dialyzed fetal bovine serum (RPMI+ds) (AID 1963880); details: Potency: P12-Ichikawa viability; further: nearly all actives have a fitted effect of over 35% in size
# In short: as §1
# [8] = Quantitative highthroughput screen to assess conditional lethalithy of SEM cells grown in RPMI1640 with unreated serum (RPMI+s) (AID 1963883); details: SEM B-ALL cells, CellTiter-Glo viability, 48 h; viability: at 45.8 µM (top of the series); further: nearly all actives have a fitted effect of over 35% in size
# In short: as §1
# [9] = Cellular viability qHTS for adrenocortical cancer (ACC) cell line NCI-H295R (AID 1963990); details: CellTiter-Glo ATP luminescence, 48 h; activity change, negative = viability loss: at 46.1 µM (top of the series); further: nearly all actives have a fitted effect of over 60% in size;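 on activity change, negative = viability loss: 0% = DMSO only wells and -100% = full killing with cytotoxic reference compound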
# In short: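 Viability of NCI-H295R after 48 h of treatment (final up to 46 uM) measured through cellular ATP luminescence.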
# [10] = viability (% of control): at 45 µM (top of the series)
# Potency means the concentration at half of the fitted maximal effect; tags describe the fitted curve by direction and shape.
structure (smiles),measurement,setting,value
N#CC(=C(/N)Sc1ccccc1N)/C(C#N)=C(/N)Sc1ccccc1N,Potency,[1]; [10],active: 10.3 µM
CC1=C2CC3OC3(C)CCC3OC3(C)CC2OC1=O (stereo unspecified),Potency,[1]; [10],"inconclusive: 4.61 µM [cytotoxic, full curve, poor fit]"
COC1=CC(=O)O/C1=C(/OC)[C@@H]1O[C@H]1c1ccccc1,Potency,[1]; [10],active: 23.1 µM
Cn1ncnc1[C@@H]1c2n[nH]c(=O)c3cc(F)cc(c23)N[C@H]1c1ccc(F)cc1,Potency,[1]; [10],"inconclusive: 29.1 µM [cytotoxic, partial curve, poor fit]"
COc1cc(O)cc(O[C@@H]2O[C@H](CO)[C@@H](O[C@@H]3OC[C@](O)(CO)[C@H]3O)[C@H](O)[C@H]2O)c1OC,Potency,[1]; [10],inactive
same,Potency,[2],inactive
Cc1c(CN(C)C(=O)/C=C/c2cnc3c(c2)CCC(=O)N3)oc2ccccc12,Potency,[1]; [10],"inconclusive: 3.26 µM [cytotoxic, partial curve, poor fit]"
O=C(Nc1cccc2cccnc12)c1ccc(N2C(=O)[C@@H]3C4C=CC(C4)[C@@H]3C2=O)cc1,Potency,[1]; [10],"inconclusive: 16.4 µM [cytotoxic, single point]"
same,Potency,[2],"inconclusive: 25.9 µM [cytotoxic, partial curve]"
COc1ccc2c3ccnc4ccc(=O)n(c2c1)c43,Potency,[1]; [10],"inconclusive: 8.2 µM [cytotoxic, partial curve]"
same,Potency,[2],"inconclusive: 10.3 µM [cytotoxic, partial curve]"
CC(=O)Oc1ccc(C(=C2CCCCC2)c2ccc(OC(C)=O)cc2)cc1,Potency,[1]; [10],"inconclusive: 11.9 µM [cytotoxic, partial curve]"
same,Potency,[2],"inconclusive: 16.8 µM [cytotoxic, single point]"
C=CCc1ccc(O[C@@H]2O[C@H](CO)[C@@H](O)[C@H](O)[C@H]2O)c(O[C@@H]2O[C@H](CO)[C@@H](O)[C@H](O)[C@H]2O)c1,Potency,[1]; [10],inactive
CN(C)CCc1c[nH]c2ccc(CS(=O)(=O)N3CCCC3)cc12,viability (% of control),[1]; at 45 µM (top of the series),inactive: 91.4%
same,viability (% of control),[1]; [10],inconclusive: 44.3% [cytotoxic]
same,Potency,[3],"inconclusive: 23.5 µM [cytotoxic, single point]"
same,Potency,[4],"inconclusive: 20.9 µM [cytotoxic, partial curve]"
same,Potency,[5],"inconclusive: 20.9 µM [cytotoxic, partial curve]"
same,Potency,[6],"inconclusive: 37.2 µM [cytotoxic, partial curve, poor fit]"
same,Potency,[7],"inconclusive: 18.7 µM [cytotoxic, partial curve, poor fit]"
same,Potency,[8],active: 5.9 µM
same,Potency,[9],"inconclusive: 29.1 µM [cytotoxic, single point] and inactive"
C[C@@H]1C[C@H]2O[C@@H]2/C=C\C=C\C(=O)Cc2c(Cl)c(O)cc(O)c2C(=O)O1,Potency,[1]; [10],active: 0.0321 µM
same,viability (% of control),[1]; [10],inactive: 9.93% [at 9.25 µM]
same,Potency,[2],"inconclusive: 0.0551 µM [cytotoxic, full curve, poor fit]"
Fc1cccc(CN(C2=NCCN2)c2c(Cl)cccc2Cl)c1,Potency,[1]; [10],"inconclusive: 29.1 µM [cytotoxic, single point]"
same,Potency,[2],"inconclusive: 18.4 µM [cytotoxic, single point]"
CCNc1nc2c(ncn2[C@H]2C[C@H](O)[C@@H](CO)O2)c(=O)[nH]1,Potency,[1]; [10],inactive
CC(=O)O[C@H]1[C@H](OC(=O)C(C)C)[C@]2(C)OC3(CC[C@]2(C)[C@H]2CCC[C@]4(CO4)[C@]12C)COC(=O)C3 (stereo partly specified),Potency,[1]; [10],inactive
CCC[C@@H]1C[C@@H](C(=O)N[C@@H]([C@H]2O[C@H](SC)[C@H](O)[C@@H](O)[C@@H]2O)[C@@H](C)O)N(C)C1,Potency,[1]; [10],"inconclusive: 20.6 µM [rising, single point]"
C=CC(=O)N1CCN(C(=O)c2cc(-c3cc(Cl)ccc3Cl)c(Cl)cc2OC)CC1,Potency,[1]; [10],active: 8.2 µM
NC(=O)[C@H](O[C@@H]1O[C@H](CO)[C@@H](O)[C@H](O)[C@H]1O)c1ccccc1,Potency,[1]; [10],inactive
CC1(C)CC[C@]2(C(=O)O)CC[C@]3(C)C(=CCC4[C@@]5(C)CC[C@H](O[C@@H]6O[C@H](C(=O)O)[C@@H](O)[C@H](O[C@@H]7O[C@H](CO)[C@H](O)[C@H](O)[C@H]7O)[C@H]6O[C@@H]6O[C@H](CO)[C@@H](O)[C@H](O)[C@H]6O)C(C)(C)C5CC[C@]43C)[C@@H]2C1 (stereo partly specified),viability (% of control),[1]; [10],inactive: 77.5% [at 4.97 µM]
c1ccc(CCNc2nc(-c3ccccc3)cs2)cc1,Potency,[1]; [10],"inconclusive: 2.11 µM [cytotoxic, partial curve, poor fit]"
same,Potency,[2],"inconclusive: 1.5 µM [cytotoxic, partial curve, poor fit]"
